Experimental data taken from the supplement of paper PMC3722116.

Legend:
[1] = compound: T1, CCCCN(CCCC)CC(O)c1cc(Cl)cc2c1-c1ccc(Cl)cc1/C2=C/c1ccc(Cl)cc1 [lumefantrine]
Description: (§1)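 Hypoxanthine uptake by fresh isolates, duplicate serial dilutions, 24 h of drug plus 18 h after the label; sigmoid fit per isolate.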

[2] = compound: T2, CCN(CC)CCCC(C)Nc1ccnc2cc(Cl)ccc12 [chloroquine]
Description: as §1

[3] = compound: T3, C[C@H]1[C@H](OC(=O)CCC(=O)O)O[C@@H]2O[C@@]3(C)CC[C@H]4[C@H](C)CC[C@@H]1[C@@]24OO3 [artesunate]
Description: as §1

[4] = compound: T4, OC(c1cc(C(F)(F)F)nc2c(C(F)(F)F)cccc12)C1CCCCN1 [mefloquine]
Description: as §1

[5] = compound: T1, lumefantrine; assay: slope of the dose-response curve (dimensionless); higher = steeper concentration-effect curve
Description: as §1

[6] = compound: T2, chloroquine; assay: as above
Description: as §1

[7] = compound: T3, artesunate; assay: as above
Description: as §1

[8] = compound: T4, mefloquine; assay: as above
Description: as §1

| Test System | EC50 of parasite growth [1] [µg/mL] | EC50 of parasite growth [2] [µg/mL] | EC50 of parasite growth [3] [µg/mL] | EC50 of parasite growth [4] [µg/mL] | slope [5] | slope [6] | slope [7] | slope [8] |
| --- | --- | --- | --- | --- | --- | --- | --- | --- |
| Plasmodium falciparum isolate 423 (pfmdr1 allele: 86N, 1042N, pfmdr1 copies: 2) | 0.0366 | 0.0744 | 0.000427 | 0.0505 | 1.93 | 2.81 | 6.6 | 4.11 |
| Plasmodium falciparum isolate 164 (pfmdr1 allele: 86N, 1042N, pfmdr1 copies: 1) | 0.038 | 0.16 | 0.000823 | 0.0304 | 2.12 | 3.86 | 6 | 3.17 |
| Plasmodium falciparum isolate 82 (pfmdr1 allele: 86N, 1042N, pfmdr1 copies: 2) | 0.083 | 0.0579 | 0.00125 | 0.1 | 2.25 | 2.22 | 7.11 | 2.36 |
| Plasmodium falciparum isolate 286 (pfmdr1 allele: 86N, 1042N, pfmdr1 copies: 1) | 0.0556 | 0.225 | 0.00291 | 0.0359 | 2.59 | 4.18 | 3.12 | 2.47 |
| Plasmodium falciparum isolate 119 (pfmdr1 allele: 86N, 1042N, pfmdr1 copies: 1) | 0.0176 | 0.182 | 0.000718 | 0.0378 | 1.72 | 3.83 | 4.56 | 2.46 |
| Plasmodium falciparum isolate 213 (pfmdr1 allele: 86N, 1042N, pfmdr1 copies: 1) | 0.0072 | 0.163 | 0.000322 | 0.0175 | 1.77 | 3.56 | 4.16 | 2.03 |
| Plasmodium falciparum isolate 267 (pfmdr1 allele: 86N, 1042N, pfmdr1 copies: 1) | 0.007 | 0.251 | 0.000753 | 0.0314 | 1.36 | 4.75 | 5.66 | 2.8 |
| Plasmodium falciparum isolate 240 (pfmdr1 allele: 86N, 1042N, pfmdr1 copies: 1) | 0.112 | 0.115 | 0.00272 | 0.128 | 3.89 | 2.43 | 7.97 | 6.6 |
| Plasmodium falciparum isolate 440 (pfmdr1 allele: 86N, 1042N, pfmdr1 copies: 1) | 0.0329 | 0.0784 | 0.000791 | 0.0257 | 2.5 | 3.83 | 4.42 | 2.76 |
| Plasmodium falciparum isolate 392 (pfmdr1 allele: 86N, 1042N, pfmdr1 copies: 1) | 0.00449 | 0.0728 | 0.000259 | 0.0044 | 1.3 | 5.18 | 3.52 | 1.53 |
| Plasmodium falciparum isolate 409 (pfmdr1 allele: 86Y, pfmdr1 copies: 1) | 0.0351 | 0.29 | 0.0012 | 0.0172 | 2.19 | 2.91 | 5.23 | 1.92 |
| Plasmodium falciparum isolate 375 (pfmdr1 allele: 86N, 1042N, pfmdr1 copies: 2) | 0.0355 | 0.0909 | 0.00058 | 0.0565 | 1.74 | 3.74 | 6.38 | 1.97 |
| Plasmodium falciparum isolate 352 (pfmdr1 allele: 86N, 1042N, pfmdr1 copies: 2) | 0.0132 | 0.0636 | 0.0013 | 0.0261 | 1.07 | 3.16 | 7.16 | 1.67 |
| Plasmodium falciparum isolate 293 (pfmdr1 allele: 86N, 1042N, pfmdr1 copies: 2) | 0.00402 | 0.0884 | 0.000809 | 0.0242 | 1.45 | 3.08 | 3.52 | 1.47 |
| Plasmodium falciparum isolate 285 (pfmdr1 allele: 86N, 1042N, pfmdr1 copies: 1) | 0.0208 | 0.0583 | 0.00127 | 0.0342 | 3.19 | 3.59 | 4.35 | 3.38 |
| Plasmodium falciparum isolate 103 (pfmdr1 allele: 86N, 1042N, pfmdr1 copies: 2) | 0.0127 | 0.149 | 0.000417 | 0.0367 | 1.95 | 3.49 | 6.27 | 2.52 |
| Plasmodium falciparum isolate 369 (pfmdr1 allele: 86N, 1042N, pfmdr1 copies: 1) | 0.00229 | 0.0554 | 0.000214 | 0.00513 | 1.33 | 2.44 | 2.34 | 2.86 |
| Plasmodium falciparum isolate 399 (pfmdr1 allele: 86N, 1042N, pfmdr1 copies: 1) | 0.0281 | 0.0723 | 0.000559 | 0.0186 | 2.8 | 4.16 | 13.1 | 2.5 |
| Plasmodium falciparum isolate 174 (pfmdr1 allele: 86N, 1042N, pfmdr1 copies: 1) | 0.0302 | 0.261 | 0.000901 | 0.0326 | 2.11 | 6.83 | 5.48 | 2.29 |
| Plasmodium falciparum isolate 290 (pfmdr1 allele: 86N, 1042N, pfmdr1 copies: 1) | 0.00164 | 0.0595 | 0.000173 | 0.00554 | 2.07 | 3.32 | 1.93 | 1.49 |

Growth of fresh clinical P. falciparum isolates by hypoxanthine uptake over 42 h; for most isolates 1.6-1,647 nM mefloquine, 0.044-87 nM artesunate, 10-10,256 nM chloroquine, 2.4-236 nM lumefantrine. EC50, lower = more sensitive; slope from the same fit, higher = steeper. No active / inactive call. Fits with a coefficient of variation above 100% are not listed here; 15-28% of fits exceed 15%. Isolates are numbered anew.
